# Biological target: Recombinant heterodimeric HCV NS3/NS4A protease (strain 1a) (Hepatitis C virus genotype 1a, UniProt P27958)
# Assay: Spectrophotometric assay for HCV serine protease inhibitory activity (chromogenic ester substrates)
# Type: biochemical
# Details: Table 3A; class symbols; read-out: Ki* Range
row,Compound,Ki
1,C=CCNC(=O)C(=O)C(CC1CC1)NC(=O)[C@@H]1[C@@H]2[C@H](CN1C(=O)[C@H](CSC(C)(C)C)NC(=O)NC1(CS(=O)(=O)C(C)(C)C)CCCCC1)C2(C)C (stereo partly drawn) [Compound 627],> 0.25 µM
2,C=CCNC(=O)C(=O)C(CCCC)NC(=O)[C@@H]1[C@@H]2[C@H](CN1C(=O)[C@@H](NC(=O)NC1(C3CCCS3(=O)=O)CCCCC1)C(C)(C)C)C2(C)C (stereo partly drawn) [Compound 629],< 0.075 µM
3,C#CCCC(NC(=O)[C@@H]1[C@@H]2[C@H](CN1C(=O)[C@@H](NC(=O)NC1(C3CCCS3(=O)=O)CCCCC1)C(C)(C)C)C2(C)C)C(=O)C(=O)NCC=C (stereo partly drawn) [Compound 630],< 0.075 µM
4,C=CCNC(=O)C(=O)C(CCCC)NC(=O)[C@@H]1[C@@H]2[C@H](CN1C(=O)[C@@H](NC(=O)NC1(C3CCCS3(=O)=O)CCCCC1)C1(C)CCCCC1)C2(C)C (stereo partly drawn) [Compound 631],< 0.075 µM
5,CCCNC(=O)C(=O)C(CCC)NC(=O)[C@@H]1[C@@H]2[C@H](CN1C(=O)[C@@H](NC(=O)NC1(C3CCCS3(=O)=O)CCCCC1)C(C)(C)C)C2(C)C (stereo partly drawn) [Compound 632],< 0.075 µM
6,CCCNC(=O)C(=O)C(CC1CC1)NC(=O)[C@@H]1[C@@H]2[C@H](CN1C(=O)[C@@H](NC(=O)NC1(C3CCCS3(=O)=O)CCCCC1)C(C)(C)C)C2(C)C (stereo partly drawn) [Compound 633],< 0.075 µM
7,C=CCNC(=O)C(=O)C(CC1CC1)NC(=O)[C@@H]1CC2(CN1C(=O)[C@@H](NC(=O)NC1(CS(=O)(=O)C(C)(C)C)CCCCC1)C(C)(C)C)SCCS2 (stereo partly drawn) [Compound 634],< 0.075 µM
8,C=CCNC(=O)C(=O)C(CCCC)NC(=O)[C@@H]1CC2(CN1C(=O)[C@@H](NC(=O)NC1(CS(=O)(=O)C(C)(C)C)CCCCC1)C(C)(C)C)SCCS2 (stereo partly drawn) [Compound 635],< 0.075 µM
9,C=CCNC(=O)C(=O)C(CC1CC1)NC(=O)[C@@H]1[C@@H]2[C@H](CN1C(=O)[C@H](CS(=O)(=O)C(C)(C)C)NC(=O)NC1(CS(=O)(=O)C(C)(C)C)CCCCC1)C2(C)C (stereo partly drawn) [Compound 636],> 0.25 µM
10,CCCC(NC(=O)[C@@H]1[C@@H]2[C@H](CN1C(=O)[C@@H](NC(=O)NC1(CS(=O)(=O)C(C)(C)C)CCCCC1)C1(C)CCCCC1)[C@@]2(C)CO)C(=O)C(=O)NC1CC1 (stereo partly drawn) [Compound 637],0.075 to 0.25 µM
11,C=CCNC(=O)C(=O)C(CCC)NC(=O)[C@@H]1[C@@H]2[C@H](CN1C(=O)[C@@H](NC(=O)NC1(C3CCCS3(=O)=O)CCCCC1)C1(C)CCCCC1)C2(C)C (stereo partly drawn) [Compound 638],< 0.075 µM
12,CCCCC(NC(=O)[C@@H]1[C@@H]2[C@H](CN1C(=O)[C@@H](NC(=O)NC1(C3CCCS3(=O)=O)CCCCC1)C1(C)CCCCC1)C2(C)C)C(=O)C(=O)NC1CC1 (stereo partly drawn) [Compound 640],< 0.075 µM
13,CC1([C@H](NC(=O)NC2(C3CCCS3(=O)=O)CCCCC2)C(=O)N2C[C@H]3[C@@H]([C@H]2C(=O)NC(CCC2CC2)C(=O)C(=O)NC2CC2)C3(C)C)CCCCC1 (stereo partly drawn) [Compound 641],< 0.075 µM
14,C=CCNC(=O)C(=O)C(CCC1CC1)NC(=O)[C@@H]1[C@@H]2[C@H](CN1C(=O)[C@@H](NC(=O)NC1(CS(=O)(=O)C(C)(C)COC3CCCCO3)CCCCC1)C1(C)CCCCC1)C2(C)C (stereo partly drawn) [Compound 642],< 0.075 µM
15,CCCC(NC(=O)[C@@H]1CC2(CN1C(=O)[C@@H](NC(=O)NC1(CS(=O)(=O)C(C)(C)C)CCCCC1)C1(C)CCCCC1)SCCS2)C(=O)C(=O)NC1CC1 (stereo partly drawn) [Compound 643],0.075 to 0.25 µM
16,C=CCNC(=O)C(=O)C(CC1CC1)NC(=O)[C@@H]1[C@@H]2[C@H](CN1C(=O)[C@@H](NC(=O)N[C@]1(CS(=O)(=O)C(C)(C)C)CC[C@H]3C[C@@H]1C3(C)C)C1(C)CCCCC1)C2(C)C (stereo partly drawn) [Compound 644],0.075 to 0.25 µM
17,CCCC(NC(=O)[C@@H]1[C@@H]2[C@H](CN1C(=O)[C@@H](NC(=O)NC1(CS(=O)(=O)C(C)(C)C)CCCCC1)C1(C)CCCCC1)[C@@]2(C)COC(=O)C(C)(C)C)C(=O)C(=O)NC1CC1 (stereo partly drawn) [Compound 645],0.075 to 0.25 µM

row,Compound,Ki
1,C=CCNC(=O)C(=O)C(CC1CC1)NC(=O)[C@@H]1CC2(CN1C(=O)[C@@H](NC(=O)NC1(CS(=O)(=O)C(C)(C)C)CCCCC1)C(C)(C)C)SCCCS2 (stereo partly drawn) [Compound 646],< 0.075 µM
2,C=CCNC(=O)C(=O)C(CCC)NC(=O)[C@@H]1CC2(CN1C(=O)[C@@H](NC(=O)NC1(CS(=O)(=O)C(C)(C)C)CCCCC1)C(C)(C)C)SCCCS2 (stereo partly drawn) [Compound 647],< 0.075 µM
3,C=CCNC(=O)C(=O)C(CCC1CC1)NC(=O)[C@@H]1[C@@H]2[C@H](CN1C(=O)[C@@H](NC(=O)NC1(CS(=O)(=O)C(C)(C)CO)CCCCC1)C1(C)CCCCC1)C2(C)C (stereo partly drawn) [Compound 648],< 0.075 µM
4,C=CCNC(=O)C(=O)C(CCCC)NC(=O)[C@@H]1C[C@@H](NS(=O)(=O)c2ccc(OC)cc2)CN1C(=O)[C@@H](NC(=O)NC1(CS(=O)(=O)C(C)(C)C)CCCCC1)C(C)(C)C (stereo partly drawn) [Compound 653],> 0.25 µM
5,C=CCNC(=O)C(=O)C(CC1CC1)NC(=O)[C@@H]1C[C@@H](NS(=O)(=O)c2ccc(OC)cc2)CN1C(=O)[C@@H](NC(=O)NC1(CS(=O)(=O)C(C)(C)C)CCCCC1)C(C)(C)C (stereo partly drawn) [Compound 654],> 0.25 µM
6,C=CCNC(=O)C(=O)C(CCC1CC1)NC(=O)[C@@H]1[C@@H]2[C@H](CN1C(=O)[C@@H](NC(=O)NC1(CS(=O)(=O)C(C)(C)COC)CCCCC1)C1(C)CCCCC1)C2(C)C (stereo partly drawn) [Compound 657],< 0.075 µM
7,C=CCNC(=O)C(=O)C(CCCC)NC(=O)[C@@H]1CC2(CN1C(=O)[C@@H](NC(=O)NC1(CS(=O)(=O)C(C)(C)C)CCCCC1)C(C)(C)C)SCCCS2 (stereo partly drawn) [Compound 658],< 0.075 µM
8,CCCC(NC(=O)[C@@H]1CC2(CN1C(=O)[C@@H](NC(=O)NC1(CS(=O)(=O)C(C)(C)C)CCCCC1)C(C)(C)C)SCCCS2)C(=O)C(=O)NC1CC1 (stereo partly drawn) [Compound 659],< 0.075 µM
9,CCCCC(NC(=O)[C@@H]1[C@@H]2[C@H](CN1C(=O)[C@@H](NC(=O)NC1(C3CCCS3(=O)=O)CCCCC1)C(C)(C)C)C2(C)C)C(=O)C(=O)NC1CC1 (stereo partly drawn) [Compound 661],< 0.075 µM
10,C=CCNC(=O)C(=O)C(CC1CCC1)NC(=O)[C@@H]1[C@@H]2[C@H](CN1C(=O)[C@@H](NC(=O)NC1(C3CCCS3(=O)=O)CCCCC1)C(C)(C)C)C2(C)C (stereo partly drawn) [Compound 663],< 0.075 µM
11,CCCNC(=O)C(=O)C(CC1CCC1)NC(=O)[C@@H]1[C@@H]2[C@H](CN1C(=O)[C@@H](NC(=O)NC1(C3CCCS3(=O)=O)CCCCC1)C(C)(C)C)C2(C)C (stereo partly drawn) [Compound 664],< 0.075 µM
12,CC(C)(C)[C@H](NC(=O)NC1(CS(=O)(=O)C(C)(C)C)CCCCC1)C(=O)N1CC2(C[C@H]1C(=O)NC(CC1CC1)C(=O)C(=O)NC1CC1)SCCS2 (stereo partly drawn) [Compound 665],0.075 to 0.25 µM
13,C=CCNC(=O)C(=O)[C@H](CC1CC1)NC(=O)[C@@H]1[C@@H]2[C@H](CN1C(=O)[C@@H](NC(=O)NC1(C3CCCS3(=O)=O)CCCCC1)C(C)(C)C)C2(C)C (stereo partly drawn) [Compound 666],< 0.075 µM
14,C=CCNC(=O)C(=O)[C@H](CC1CC1)NC(=O)[C@@H]1[C@@H]2[C@H](CN1C(=O)[C@@H](NC(=O)NC1(CS(=O)(=O)C(C)(C)C)CC3CCC(C3)C1)C(C)(C)C)C2(C)C (stereo partly drawn) [Compound 667],< 0.075 µM
15,CCCC(NC(=O)[C@@H]1[C@@H]2[C@H](CN1C(=O)[C@@H](NC(=O)NC1(CS(=O)(=O)C(C)(C)COC)CCCCC1)C1(C)CCCCC1)C2(C)C)C(=O)C(=O)NC1CC1 (stereo partly drawn) [Compound 668],< 0.075 µM
16,C=CCNC(=O)C(=O)C(CCCC)NC(=O)[C@@H]1C[C@@H](C#N)CN1C(=O)[C@@H](NC(=O)NC1(CS(=O)(=O)C(C)(C)C)CCCCC1)C(C)(C)C (stereo partly drawn) [Compound 670],> 0.25 µM

# Source: patent publication US8067379B2, “Sulfur compounds as inhibitors of hepatitis C virus NS3 serine protease” (Schering Corporation, priority 2004, dated 2011)
